Source: the supplement of paper PMC4723716
± gives the uncertainty stated by the source. In all, about 9,900 compounds were measured (“viability index relative to DMSO control”: median about 1, lowest 2% from about 0.85 on). The list shows a part of the results.

Test system: Plasmodium falciparum NF54 stage V gametocytes
Experiment: viability index relative to DMSO control (fraction); higher = less gametocyte killing
Conditions: 2.5 µM, incubation time: 72 h
Method in brief: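 Gametocytes (P. falciparum NF54, stage V) were treated with compound at 2.5 µM for 72 hr at 37°C in low oxygen, in serum-free medium at 0.75% gametocytemia and 1.25% hematocrit. Counts of 20–70 µm2 red particles, taken from one field per well after MitoTracker Red CMXRos with saponin, were divided by the plate mean of solvent-only wells. This ratio is the viability index.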

[1] = library set: Broad Institute DOS

Structure (SMILES)	viability index [1]	viability index (library set: Broad Institute Blood Stage)
COc1cccc(S(=O)(=O)N2CCCCN3[C@H](C2)[C@@H](c2ccc(C#CCC(C)C)cc2)[C@@H]3CO)c1	0.857 ± 0.061	–
CCCNC(=O)C[C@@H]1CC[C@H]2[C@@H](COc3ccc(NC(=O)CC)cc3C(=O)N2C)O1	1.14 ± 0.029	–
CN1C(=O)c2cc(NC(=O)c3cccc(F)c3)ccc2OC[C@@H]2O[C@H](CC(=O)NCc3ccccc3Cl)CC[C@H]21	1.13 ± 0.036	–
O=C(C1CCOCC1)N1CC(=O)N2[C@H](C1)[C@@H](c1ccc(/C=C/c3ccccc3)cc1)[C@@H]2CO	1.11 ± 0.023	–
O=C(c1cccnc1)N1CC(=O)N2[C@H](CO)[C@@H](c3ccc(-c4ccccc4F)cc3)[C@@H]2C1	1.079 ± 0.008	–
CCCC#Cc1ccc([C@H]2[C@@H](CO)N3C(=O)CN(S(=O)(=O)c4ccccc4C)C[C@@H]23)cc1	0.987 ± 0.039	–
Cc1cccc(-c2ccc([C@H]3[C@@H]4CN(C(=O)c5ccncc5)C[C@H]3N4)cc2)c1	1.05 ± 0.079	–
Cc1ccc(S(=O)(=O)Nc2ccc3c(c2)C(=O)N([C@@H](C)CO)C[C@H](C)[C@@H](CN(C)Cc2ccc(C(F)(F)F)cc2)O3)cc1	1.005 ± 0.0077	–
CO[C@H]1CC[C@@H]2CCOc3ccc(C#N)cc3C(=O)N(C)[C@H](C)C(=O)N(C)C[C@@H]1O2	1.067 ± 0.0011	–
CCNC(=O)C[C@H]1CC[C@@H]2[C@H](COC[C@@H](O)CN2C(=O)c2ccccn2)O1	1 ± 0.081	–
CN1C(=O)c2cc(NS(C)(=O)=O)ccc2OC[C@H]2O[C@@H](CC(=O)NCc3ccccc3)CC[C@@H]21	1.14 ± 0.038	–
COc1ccc(C#Cc2ccc([C@@H]3[C@H](CO)N4C(=O)CN(C(=O)c5ccc(F)cc5)C[C@@H]34)cc2)cc1	1 ± 0.017	–
CC(C)[C@@H]1CCc2cnnn2COC[C@@H](Cc2ccccc2)NC1=O	1.02 ± 0.038	–
C[C@H](CO)N1C[C@H](C)[C@H](CN(C)C(=O)C2CCCCC2)Oc2ncc(C#Cc3cccc(F)c3)cc2C1=O	–	0.62 ± 0.074
COCC(=O)Nc1ccc2c(c1)[C@H]1C[C@@H](CC(=O)N[C@@H](C)c3ccccc3)O[C@H](CO)[C@H]1O2	1.052 ± 0.0051	–
N#Cc1ccc(-c2ccc([C@H]3[C@@H](CO)N4C(=O)CNC[C@@H]34)cc2)cc1	0.965 ± 0.1	–
Cc1ccc(S(=O)(=O)Nc2ccc3c(c2)C(=O)N([C@H](C)CO)C[C@H](C)[C@H](CN(C)S(=O)(=O)c2cccs2)OCCCC[C@@H](C)O3)cc1	1.14 ± 0.096	–
CO[C@H]1CC[C@H]2CCN(C)C(=O)[C@H](C)N(C)C(=O)c3cccc(C#N)c3OC[C@H]1O2	1.07 ± 0.063	–
CCS(=O)(=O)N1CCCCN2[C@H](CO)[C@H](c3ccc(-c4ccc(C(=O)N(C)C)cc4)cc3)[C@H]2C1	1.07 ± 0.13	–
C[C@@H]1CN([C@@H](C)CO)C(=O)c2cc(N(C)C)ccc2O[C@@H](C)CCCCO[C@@H]1CN(C)S(=O)(=O)c1cn(C)cn1	1.18 ± 0.046	–
C[C@H](NC(=O)C[C@H]1C=C[C@H](NS(=O)(=O)c2cccc(F)c2)[C@H](CO)O1)c1ccccc1	1.14 ± 0.087	–
COCCNC[C@@H]1[C@@H](c2ccccc2)[C@@H](CO)N1c1nc(C)c(C)s1	0.956 ± 0.049	–
C[C@@H](NC(=O)C[C@H]1CC[C@H]2[C@@H](COC[C@H](O)CN2Cc2ccc(C(F)(F)F)cc2)O1)c1ccccc1	1.047 ± 0.0052	–

Structure (SMILES)	viability index [1]	viability index (library set: Broad Institute Blood Stage)
O=C(c1cnccn1)N1CC(=O)N2[C@H](CO)[C@@H](c3ccc(C#CC4CC4)cc3)[C@H]2C1	1.09 ± 0.074	–
CN(C)C(=O)C[C@H]1CC[C@@H]2[C@H](COC[C@@H](O)CN2C(=O)C2CCOCC2)O1	1.08 ± 0.026	–
COc1cccc(CNC(=O)[C@H]2[C@H](CO)[C@H]3Cn4c(cccc4=O)[C@@H]2N3C(=O)C2CCCC2)c1	0.987 ± 0.063	–
C[C@H]1CN([C@@H](C)CO)C(=O)CCCn2cc(nn2)CO[C@@H]1CN(C)C(=O)CCC(F)(F)F	0.944 ± 0.023	–
COc1cccc(-c2ccc([C@@H]3[C@H]4CN(C(=O)c5cccnc5)CC(=O)N4[C@H]3CO)cc2)c1	0.983 ± 0.02	–
O=C(Nc1ccc2c(c1)[C@H]1C[C@H](CC(=O)N3CCc4ccccc4C3)O[C@@H](CO)[C@H]1O2)c1ccc2c(c1)OCO2	1.1 ± 0.031	–
O=C(Cc1ccccc1)N1CC[C@@H]2[C@H]1c1cc(C#Cc3cccc(F)c3)ccc1N[C@@H]2CO	1.1 ± 0.033	–
O=C(C[C@H]1C=C[C@H](NC(=O)Cc2cccnc2)[C@@H](CO)O1)NCc1ccc2c(c1)OCO2	1.2 ± 0.026	–
O=C1CN(S(=O)(=O)Cc2ccccc2)C[C@@H]2[C@H](c3ccc(C#Cc4ccccc4)cc3)[C@@H](CO)N12	0.906 ± 0.019	–
CN1C(=O)c2cc(NS(=O)(=O)c3cccc(F)c3)ccc2OC[C@H]2O[C@H](CC(=O)NCCN3CCCCC3)CC[C@@H]21	1.007 ± 0.0079	–
COc1ccc2c3c([C@H](CO)N(Cc4cccnc4)C[C@]33CN(C3)C(=O)c3cccnc3)n(C)c2c1	1.02 ± 0.028	–
COC(=O)C[C@@H]1CC[C@@H]2[C@H](COc3ccc(NS(=O)(=O)c4ccc(C)cc4)cc3C(=O)N2C)O1	1.1 ± 0.069	–
C[C@H]1CCCCO[C@H](CN(C)CC2CC2)[C@@H](C)CN([C@@H](C)CO)C(=O)c2cc(NC(=O)c3ccccc3)ccc2O1	1.073 ± 0.0049	–
CN(C)CC(=O)N1[C@H](C#N)[C@H](c2ccccc2-c2ccccc2F)[C@H]1CO	1.11 ± 0.12	–
COc1ccc2c3c([nH]c2c1)[C@H](CO)N(C[C@]31CN(C1)C(=O)Nc1c(C)noc1C)C(=O)Nc1ccc(F)cc1	1.121 ± 0.0049	–
COCC(=O)Nc1ccc2c(c1)[C@@H]1C[C@H](CC(=O)NCc3ccc4c(c3)OCO4)O[C@H](CO)[C@@H]1O2	1.12 ± 0.077	–
CO[C@H]1CC[C@@H]2CCN(C)C(=O)CCCN(C)C(=O)c3cc(C#N)ccc3OC[C@H]1O2	0.989 ± 0.033	–
COc1cccc(-c2ccc([C@@H]3[C@H]4CNCC(=O)N4[C@H]3CO)cc2)c1	1.07 ± 0.013	–
O=C(N[C@@H]1CC[C@@H](CCn2cc(-c3ccccc3F)nn2)O[C@@H]1CO)c1ccc2c(c1)OCO2	1.126 ± 0.0065	–
O=C(NCCN1CCCCC1)[C@H]1N[C@H]2c3ccc(-c4cccnc4)c(=O)n3C[C@H]2[C@@H]1CO	1 ± 0.083	–
COCC(=O)N1CC2(C1)[C@@H](c1ccccc1)[C@@H](CO)N2C(=O)NC1CCCC1	0.975 ± 0.12	–
COc1ccc2c3c([nH]c2c1)[C@@H](CO)N(C[C@]31CCN(CC1)S(=O)(=O)c1cn(C)cn1)C(=O)Nc1ccc(F)cc1	1.066 ± 0.004	–
